Test results from PubChem BioAssay AID743262 (National Center for Advancing Translational Sciences (NCATS), 2014).
Hit rate of the full screen: of about 1,300 compounds, about 25 (2%) were called active. Not shown: some 9% with an inconclusive outcome. The call rests on the fitted dose curve; in most records, active means well fitted activation curve with a large enough effect; inconclusive means small, poorly fitted or top-dose-only effect; inactive means flat fitted curve, though single readings scatter. The list shows a part of the results.

The molecules below were run against Glucagon-like peptide 1 receptor (Homo sapiens) (UniProt P43220) (assay: qHTS of GLP-1 Receptor Agonists: Hit Validation). Conditions: HEK293 GLP-1R, cAMP-response luciferase, 4-6 h; series mostly up to 46.1 µM; activation: at the top concentration.
Chain of UniProt P43220 (P43220 whole entry, looked up): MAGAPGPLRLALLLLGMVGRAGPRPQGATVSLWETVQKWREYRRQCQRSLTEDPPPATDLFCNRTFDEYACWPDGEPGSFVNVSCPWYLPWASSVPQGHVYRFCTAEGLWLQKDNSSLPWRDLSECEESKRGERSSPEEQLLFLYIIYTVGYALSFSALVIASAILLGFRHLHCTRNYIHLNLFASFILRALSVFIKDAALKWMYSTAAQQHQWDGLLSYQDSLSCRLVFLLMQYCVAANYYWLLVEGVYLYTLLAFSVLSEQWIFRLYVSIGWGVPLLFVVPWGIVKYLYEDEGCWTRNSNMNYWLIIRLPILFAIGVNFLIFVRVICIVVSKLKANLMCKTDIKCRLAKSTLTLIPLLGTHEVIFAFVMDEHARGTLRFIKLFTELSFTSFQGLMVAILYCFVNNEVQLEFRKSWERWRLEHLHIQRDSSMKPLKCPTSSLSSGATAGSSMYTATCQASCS
Outline: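 Stably transfected HEK293 cells co-expressing GLP-1R and a cAMP-responsive luciferase reporter, plated 12 h before compound. Compound exposure 4-6 hr at 37 deg C, 5% CO2; luciferase luminescence read after 12 min detection at RT.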
Further: % of control where 0% means no effect.

activation, inactive:
CCn1c(C)cc(/C=C2/SC(=O)N(C(C)C(=O)OC)C2=O)c1C (centres undefined) 1.7%
Cn1c(=O)[nH]c(=O)c2c1nc(Sc1ncccn1)n2CCCc1ccccc1 2.01%
Cc1ccc(-c2nc3ccccc3c(=O)n2CCCN2CCOCC2)cc1 -0.601%
COc1ccc(CN(C)C(=O)COC(=O)c2cc([N+](=O)[O-])ccc2N2CCCC2)c(OC)c1OC 16.9%
COc1cccc(Nc2nc(N)c([N+](=O)[O-])c(NCc3ccco3)n2)c1 21.8%
CCN1C(=O)c2cccc3c(NC(=O)c4ccccc4)ccc1c23 7.45%
CCN1CCN(c2nc3sc4c(c3c(=O)n2-c2ccc(OC)cc2)CCCCC4)CC1 1.84%
COC(=O)Cc1c(C)c2ccc(OCc3nn[nH]n3)cc2oc1=O -0.628%
COc1ccc(-c2nn3c(-c4ccccc4)nnc3s2)cc1OC 25.9%
COc1ccc(C(=O)NCC2(c3ccc(OC)c(OC)c3)CCCC2)cc1OC 14.5%
COc1ccc(C2=NN(C(C)=O)C(c3cccs3)C2)cc1OC (centres undefined) 14.1%
CC(C)CCOC(=O)C1[C@H]2C(=O)N(Cc3cccs3)C[C@]23C=C[C@H]1O3 (some centres undefined) -0.642%
CCOC(=O)c1ccc(CNC(=O)CSc2nc(NC(=O)c3ccccc3)c3c(C)c(C)oc3n2)cc1 1.67%
CCOc1ccc(S(=O)(=O)N(C)CCO)cc1-c1nc2c(C(C)(C)C)nn(C)c2c(=O)[nH]1 5.32%
COc1ccc(C(=O)/C=C/c2ccc(N(C)C)cc2)c(OC)c1 4.92%
CCOCCn1ccc2c(OCC(=O)Nc3ccccc3OC)cccc2c1=O 17.4%
COc1ccc(C2c3cc(OC)c(OC)cc3CC3C(=O)OCC32)cc1OC (centres undefined) 16.3%
COC(=O)CSc1ncnc2scc(-c3ccccc3)c12 8.75%
Cc1cccc2nc(COc3ccc(Cl)c4cccnc34)cn12 5.11%
Cc1ccc2c(c1)C(=O)C(=O)N2CCOc1ccccc1 13.9%
COC(=O)c1ccc(Cn2nc(-c3cc(C)ccc3C)ccc2=O)cc1 1.3%
c1ccc(-c2nc(NCc3cccnc3)c3ccccc3n2)cc1 1.56%
CCOC(=O)Nc1sc2c(c1C#N)CCC(C)C2 (centres undefined) 7.33%
CCC(CC)c1nnc(NC(=O)CCc2ccccc2)s1 -0.463%
O=[N+]([O-])c1cccnc1NCCNc1ncc(C(F)(F)F)cc1Cl 4.34%
Nc1nc(Nc2ccccc2F)nc(NCCO)c1[N+](=O)[O-] 5.51%
Cc1c(C(=O)N(C)CCOc2ccccc2)oc2c(Cl)cccc12 11.5%
COc1ccc(N(C(=O)/C=C/c2ccc(OC)c(OC)c2)C2=CC3CCC(C2)N3C)cc1 (centres undefined) 18.9%
N#Cc1ccc(-c2cccs2)nc1SCc1cccnc1 26%
COc1cc2c(cc1OC)CN(C(=O)c1ccc(S(=O)(=O)N(C)c3ccccc3)cc1)CC2 16.1%
CCC(C(=O)NC1CCCC1)N(C(=O)Cn1nnc(-c2ccc(OC)c(OC)c2)n1)C1CCCCC1 (centres undefined) 5.83%
COc1ccc(Nc2nc(-c3sc(C)nc3C)cs2)cc1 11.7%
CN(C)/C=N/c1nc2nccc(-c3ccccc3)n2n1 -0.929%
CCOc1ccccc1Nc1nc(-c2sc(C)nc2C)cs1 11.2%
Cc1ccc(OCC(=O)NC2CCCC(C)C2C)c([N+](=O)[O-])n1 (centres undefined) 6.59%
COc1ccc(S(=O)(=O)N2CCc3ccccc32)cc1C(=O)Nc1cccnc1 4.12%
COc1ccc(-c2nc(C#N)c(NC(C)c3ccccc3)o2)cc1OC (centres undefined) 24.4%
C=CCN1C(=O)/C(=C/C(=O)OC)S/C1=N\NC(=O)c1ccccc1 -0.421%
CCN(C(=O)c1cc2c(=O)n3ccccc3nc2s1)C1CCCCC1 24.2%
CNC(C)C#Cc1ccc2c(=O)c3ccccc3oc2c1 (centres undefined) 5.08%
COc1ccc(-c2cn3cc(Cl)ccc3n2)cc1OC 7.52%
CCOC(=O)c1ccc(N)cc1 -0.583% [at 19.8 µM]
COc1cc(/C=N/N(CCO)C2=NS(=O)(=O)c3ccccc32)cc(OC)c1OC 3.77%
c1ccc(Cn2nnc3c(N4CCC5(CC4)OCCO5)ncnc32)cc1 -0.288%
CCOC(=O)c1c(NC(=O)Cc2ccccc2)sc2c1CC(C)(C)NC2(C)C 8.42%
CNc1nccc(-c2ccc(Cl)cc2)c1C#N 2.52%
COc1ccc(NC(=O)c2cccnc2)cc1OCC(C)C 0.0143%
CCCCc1cc2c(cc1NC(=O)CN1CCCCC1)OCCO2 1.46%
Cc1cc(N)n(-c2nc(-c3cccnc3)nc3ccccc23)n1 19.2%
CC1=C/C(=N\Nc2ccccc2[N+](=O)[O-])CC(C)(C)C1 2.04%
COc1ccc(C(CNC(=O)c2oc3ccccc3c2C)N2CCCC2)cc1 (centres undefined) -0.488%
COc1ccc(/C=N\NC(=O)c2cccc(F)c2)cc1COc1ccccc1 14.9%
COc1ccc(N/C=C/C(=O)c2ccc(OC)c(OC)c2)cc1 2.3%
CN(C)C(=O)CNC(=O)Cc1ccccc1 3.4%
COc1ccc(CCN(C)C(=O)CCCN2C(=O)c3cccc4cccc(c34)C2=O)cc1OC 20.4%
C=CCn1c(SCc2c(C)noc2C)nc2ccccc2c1=O 21.1%
O=C(OCCN1C(=O)c2ccccc2C1=O)c1cc(S(=O)(=O)N2CCOCC2)ccc1F 14.3%
Nc1ccc(OCc2ccccc2)cc1 -1.33%
COc1ccc(-c2nc(C#N)c(N3CCc4ccccc4C3)o2)cc1OC 14.9%
COc1ccc(/C=N/NC(=O)C(C)n2nnc3ccccc32)cc1OC (centres undefined) 25.1%
COCc1cc(C)nc2sc(C(=O)Nc3cccc(OC)c3)c(N)c12 16.2%
CN(c1ccccc1)c1nc(N)c([N+](=O)[O-])c(NCc2ccco2)n1 20.5%
CCc1ccc2c(CN(C)Cc3ccccc3OC)cc(=O)oc2c1 4.09%
COc1ccc(CCC(=O)OCC(=O)c2ccc[nH]2)cc1OC -0.276%
COC(=O)c1c(NC(=O)Cc2cccs2)sc(C(=O)N2CCCCC2)c1C 5.7%
Cc1nc2sc(C#N)c(N)c2c2c1CCCC2 8%
Nc1nc2sc3c(c2c(=O)s1)CCCC3 19.1%
Cn1c(=O)oc2cc(S(=O)(=O)NC3CCCCCCC3)ccc21 3.72%
CCCSc1ccc2nc(NC(=O)OC)[nH]c2c1 9.19% [at 19.8 µM]
COc1ccccc1Oc1ccc(N/C=C/C(=O)c2ccc(C)o2)cc1 9.43%
COCc1cc(C)nc2sc(C(=O)OC(C)C)c(N)c12 6.32%
CCn1c2ccccc2c2nnc(SCc3ccc(C(=O)OC)o3)nc21 20.9%
Cc1cc(NC2CCCC2)n2nc(C)c(-c3ccccc3)c2n1 5.06%
CC(C)Cc1nc(NCCN2CCOCC2)c(C#N)c2c1COC(C)(C)C2 1.81%
CCCc1nc2n[nH]c(N)c2c2c1CCCC2 13%
CCCOc1ccc2c3c(c(=O)oc2c1)CCCC3 2.52%
O=c1c2c3c(sc2nc(NCCO)n1Cc1ccco1)CCCCC3 6.54%
COc1ccc(/C=N/Nc2ccccn2)cc1OC 5.71%
Cc1cccc(NC(=O)CSc2nc3ccccc3c(=O)n2C)c1 1.65%
c1ccc(Cc2nnc3sc(-c4cccs4)nn23)cc1 4.08%
CC(C)C(=O)COc1c2occc2cc2ccc(=O)oc12 -0.26%
Cc1ccc(Oc2nc(CN3CCOCC3)nc3sc4c(c23)CCC(C)C4)cc1 (centres undefined) 8.1%
COC(=O)c1ccc(OCC2c3cc(OC)c(OC)cc3CCN2C(C)=O)cc1 (centres undefined) 9.94%
COc1ccc(/C=N/OCC(=O)NC(c2ccccc2)c2ccccc2)cc1OC 6.47%
CCNC(=O)OCCC12CC3CC(CC(C3)C1)C2 3.87%
CCOC(=O)c1c(-c2cccc([N+](=O)[O-])c2)cn2ccccc12 4.04%
CCNc1nnc(CSc2nc3ccccc3s2)s1 2.83%
COc1cc2cnc(-c3ccccc3)c(C(=O)c3ccc(F)cc3)c2cc1OC 9.41%
CCCCc1[nH]c(=O)c(C#N)c2c1CCCC2 2.15%
CSc1nnc(C)c(/C=C/Nc2ccc(F)cc2)n1 12.1%
COc1ccc(-c2oc3cccnc3c2-c2ccc(OC)nc2)cc1 18.1%
COc1ccc(-c2cc(C(=O)NC3=NCCS3)c3ccccc3n2)cc1OC 8.3%
CCOc1ccc(C(=O)NC(=S)Nc2ncccc2C)cc1[N+](=O)[O-] 2.11%
COc1cc(/C=C2/SC(=Nc3ccc(O)cc3)NC2=O)cc(OC)c1O 24.5%
CSc1ncccc1C(=O)OCc1c(F)cccc1Cl 5.02%
COc1ccc(-n2cnc3cc(NCc4ccco4)ccc32)cc1 6.51%
COc1ccc(-c2nnc(SCc3ccccc3F)o2)cc1OC 7.03%
O=CNc1cc(-c2ccccc2)cn2c(-c3ccc(F)c(Cl)c3)cnc12 28%
CCOC(=O)Nc1cc(OC)cc2ccc(C)nc12 -0.461%
CC(C)(C)CNc1cc(N2CCOCC2)ccc1[N+](=O)[O-] 7.76%
O=C(COc1ccccc1Cc1ccccc1)Nc1cccc(S(=O)(=O)N2CCOCC2)c1 4.02%
CCOC(=O)c1c(-c2ccccc2)nc2cc(C)ccn12 4.34%
CCOc1ccc(C2c3cc(OC)c(OC)cc3CC(=O)N2c2ccccc2)cc1 (centres undefined) 3.64%
CCc1ccc(S(=O)(=O)Nc2ccc(-c3ccc4nnc(C)n4n3)cc2)s1 14%
O=C(OCC1CC(c2ccccc2Cl)=NO1)c1ccc(Br)cc1 (centres undefined) -0.379%
CC1CN(c2nc(Nc3ccccc3)nc(N)c2[N+](=O)[O-])CC(C)O1 (centres undefined) 4.37%
Oc1ccc2ccccc2c1N=Nc1ccccn1 5.08%
Cc1c(C(=O)N(C)C(C)c2ccccn2)oc2c(F)cccc12 (centres undefined) 2.69%
COC(=O)c1ccc(-c2c(-c3ccccc3)ncc3cc(OC)c(OC)cc23)cc1 11.1%
CCc1cc2c(COC(=O)c3cccc(S(C)(=O)=O)c3)cc(=O)oc2cc1O 3.6%
CCNC(=O)CON=C1c2ccccc2-c2ccccc21 2.43%
CCCc1c(C)c2ccc(OCC(C)=O)cc2oc1=O 1.48%
COc1cccc(N2C(=O)CN(Cc3ccc(OC)c(OC)c3)C2=S)c1 2.73%

Potency, inactive:
COc1cc(-c2ccc(=O)[nH]n2)ccc1OC(F)F
